Experimental data reported in the antibiotic and cytotoxicity screens of Wong et al. (2023).
Some of the results follow.

system: HepG2; test: cytotoxicity call (relative viability < 0.9); conditions: 10 µM

With `Cc1cc(NC2CCCCC2)ncn1` as the compound, how does the cytotoxicity call read?
Its cytotoxicity call is “inactive”.

`O=C(NO)c1ccncc1` was tested. Which cytotoxicity call did it give?
Its cytotoxicity call is “inactive”.

With `C=CCSc1n[nH]c2nc(=O)cc(N)n12` as the compound, how does the cytotoxicity call read?
The cytotoxicity call was “inactive”.

With `C[C@@H]1CCCCO[C@H](CN(C)C(=O)Nc2cccc3ccccc23)[C@H](C)CN([C@H](C)CO)C(=O)c2cc(NC(=O)C3CCCCC3)ccc2O1` as the compound, how does the cytotoxicity call read?
Its cytotoxicity call is “active”.

For `CNC(=O)C[C@H]1CC[C@H]2[C@@H](COC[C@@H](O)CN2C(=O)Nc2cccc(OC)c2)O1`, which cytotoxicity call is on record?
Its cytotoxicity call is “inactive”.

Which cytotoxicity call does the source give for `CC(C)NC(=O)N(C)C[C@H]1Oc2cc(C#Cc3ccccn3)ccc2S(=O)(=O)N([C@H](C)CO)C[C@H]1C` here?
Its cytotoxicity call is “inactive”.

`NCC[C@@H]1CC[C@@H](NC(=O)NC2CCCCC2)[C@@H](CO)O1` was tested. Which cytotoxicity call did it give?
Its cytotoxicity call is “inactive”.

`C[C@H](CO)N1C[C@H](C)[C@H](CN(C)C(=O)Nc2ccc(C(F)(F)F)cc2)OCCCC[C@H](C)Oc2ccc(NC(=O)NC3CCCCC3)cc2C1=O` was tested. Which cytotoxicity call did it give?
The cytotoxicity call was “inactive”.

How did the cytotoxicity call turn out when `C[C@@H](O)C#Cc1ccc2c(c1)O[C@@H](CN(C)C(=O)CN(C)C)[C@@H](C)CN([C@@H](C)CO)S2(=O)=O` was run?
Its cytotoxicity call is “inactive”.

How did the cytotoxicity call turn out when `Cc1cc(=O)n2ncnc2[nH]1` was run?
The cytotoxicity call was “inactive”.

For `O=c1c(O)c(-c2ccc(O)c(O)c2)oc2cc(O)ccc12`, which cytotoxicity call is on record?
Its cytotoxicity call is “active”.

For `C[C@H]1CN([C@@H](C)CO)C(=O)Cc2cc(NS(=O)(=O)c3ccc(F)cc3)ccc2O[C@@H]1CN(C)Cc1ccncc1`, which cytotoxicity call is on record?
Its cytotoxicity call is “inactive”.

Which cytotoxicity call does the source give for `C[C@@H]1CCCCO[C@@H](CN(C)S(=O)(=O)c2ccc(Cl)cc2)[C@@H](C)CN([C@H](C)CO)C(=O)c2cc(NC(=O)c3ccccc3)ccc2O1` here?
The cytotoxicity call was “inactive”.

With `O=C(C[C@H]1CC[C@@H](NS(=O)(=O)c2ccc(F)cc2)[C@H](CO)O1)N1CCC(Cc2ccccc2)CC1` as the compound, how does the cytotoxicity call read?
The cytotoxicity call was “inactive”.

`c1cnc2c(c1)OCCN2` was tested. Which cytotoxicity call did it give?
The cytotoxicity call was “inactive”.

Which cytotoxicity call does the source give for `C[C@H]1CN([C@@H](C)CO)C(=O)c2c(c3ccccc3n2C)-c2ccccc2CO[C@@H]1CN(C)Cc1ccc(-c2ccccc2)cc1` here?
The cytotoxicity call was “inactive”.

system: S. aureus RN4220; test: growth inhibition call (relative growth <= 0.2); conditions: 50 µM

For `C[C@@H]1CN([C@H](C)CO)C(=O)Cc2cc(NC(=O)Cn3cnnn3)ccc2O[C@@H]1CN(C)CC1CC1`, which growth inhibition call is on record?
The growth inhibition call was “inactive”.

How did the growth inhibition call turn out when `O=C(O)CCCCCCC(=O)Nc1ccc([C@H]2O[C@@H](CSc3nc(-c4ccccc4)c(-c4ccccc4)o3)C[C@H](c3ccc([N+](=O)[O-])cc3)O2)cc1` was run?
Its growth inhibition call is “inactive”.

With `CN(C)[C@@H]1C(=O)[C@@H](C(N)=O)C(=O)[C@@]2(O)C(=O)[C@@H]3C(=O)c4c(O)c(NC(=O)CN5CCCC5)cc(F)c4C[C@H]3C[C@@H]12` as the compound, how does the growth inhibition call read?
Its growth inhibition call is “active”.

Which growth inhibition call does the source give for `O=C1CCOC1` here?
The growth inhibition call was “inactive”.

Which growth inhibition call does the source give for `C[C@@H]1CN([C@H](C)CO)C(=O)CCCn2nncc2CO[C@@H]1CN(C)Cc1cccc2c1OCCCO2` here?
Its growth inhibition call is “inactive”.

`Nc1nnc(-c2ccc([N+](=O)[O-])o2)o1` was tested. Which growth inhibition call did it give?
The growth inhibition call was “active”.

For `C[C@@H]1CCCCO[C@H](CN(C)S(=O)(=O)c2ccc(F)cc2)[C@@H](C)CN([C@@H](C)CO)C(=O)c2cc(NS(=O)(=O)c3ccc(Cl)cc3)ccc2O1`, which growth inhibition call is on record?
The growth inhibition call was “inactive”.

Which growth inhibition call does the source give for `CC(C)c1cc(N2CC[C@@H](N)C2)nc(N)n1` here?
Its growth inhibition call is “inactive”.

How did the growth inhibition call turn out when `Cc1ccc(S(=O)(=O)Nc2ccc3c(c2)C(=O)N([C@H](C)CO)C[C@H](C)[C@H](CN(C)S(C)(=O)=O)OCCCC[C@@H](C)O3)cc1` was run?
The growth inhibition call was “inactive”.

For `CCCCCCCCCCCCCCCCCC(=O)OC[C@@H](COP(=O)(O)OCC[N+](C)(C)C)OC(=O)CCCCCCCCCCCCCCCCC`, which growth inhibition call is on record?
Its growth inhibition call is “inactive”.

How did the growth inhibition call turn out when `C[C@@H]1CN([C@@H](C)CO)C(=O)c2cc(NC(=O)Nc3ccccc3)ccc2O[C@H]1CN(C)S(=O)(=O)c1cn(C)cn1` was run?
Its growth inhibition call is “inactive”.

With `CO[C@@H]1CN(C)C(=O)c2ccc(NC(=O)C3CC3)cc2OC[C@@H](C)N(C(=O)CN2CCOCC2)C[C@@H]1C` as the compound, how does the growth inhibition call read?
The growth inhibition call was “inactive”.

For `C[C@H]1CCCCO[C@H](CN(C)S(=O)(=O)c2ccc(F)cc2)[C@@H](C)CN([C@@H](C)CO)C(=O)c2cc(NC(=O)Nc3cccc4ccccc34)ccc2O1`, which growth inhibition call is on record?
Its growth inhibition call is “inactive”.

With `N=C(N)SCCN1C(=O)c2ccccc2C1=O` as the compound, how does the growth inhibition call read?
The growth inhibition call was “inactive”.

Which growth inhibition call does the source give for `COc1ccc(-c2cc(C(F)F)nn2-c2ccc(S(N)(=O)=O)cc2)cc1F` here?
Its growth inhibition call is “inactive”.

How did the growth inhibition call turn out when `CO[C@@H]1CN(C)C(=O)c2ccc(NS(=O)(=O)CC(F)(F)F)cc2OC[C@H](C)N(C(=O)NC(C)C)C[C@H]1C` was run?
The growth inhibition call was “inactive”.

`COc1ccc(CN2C[C@H](C)[C@@H](OC)CN(C)C(=O)c3ccc(NC(=O)c4nc5ccccc5s4)cc3OC[C@@H]2C)cc1` was tested. Which growth inhibition call did it give?
The growth inhibition call was “inactive”.

With `COC1=C(O)C(=O)c2c(cc3oc(C(C)=O)c(O)c3c2O)C1=O` as the compound, how does the growth inhibition call read?
The growth inhibition call was “inactive”.

For `COc1ccc2c3c([nH]c2c1)[C@H](CO)N(Cc1ccc(cc1)Cl)C[C@]13CCN(CC1)Cc1nccs1`, which growth inhibition call is on record?
Its growth inhibition call is “inactive”.

With `C[C@@H]1CN([C@@H](C)CO)C(=O)c2cc(NC(=O)C3CCCCC3)ccc2O[C@@H](C)CCCCO[C@@H]1CN(C)C(=O)Nc1ccc(F)cc1` as the compound, how does the growth inhibition call read?
Its growth inhibition call is “inactive”.

Which growth inhibition call does the source give for `Cc1noc(C)c1NC(=O)N(C)C[C@@H]1OCCCC[C@H](C)Oc2ccc(NS(=O)(=O)c3ccc(Cl)cc3)cc2C(=O)N([C@@H](C)CO)C[C@H]1C` here?
Its growth inhibition call is “inactive”.

With `N=C(N)SCc1ccc(B(O)O)cc1` as the compound, how does the growth inhibition call read?
Its growth inhibition call is “inactive”.

With `Cc1ccc(S(=O)(=O)Nc2ccc3c(c2)C(=O)N([C@@H](C)CO)C[C@@H](C)[C@@H](CN(C)S(=O)(=O)c2ccc(C)cc2)OCCCC[C@@H](C)O3)cc1` as the compound, how does the growth inhibition call read?
Its growth inhibition call is “inactive”.

Which growth inhibition call does the source give for `COc1ccc(NC(=O)Nc2ccc3c(c2)C(=O)N([C@H](C)CO)C[C@H](C)[C@@H](CN(C)Cc2ccncc2)OCCCC[C@H](C)O3)cc1` here?
The growth inhibition call was “inactive”.

For `Cc1cc(NC2CCCCC2)ncn1`, which growth inhibition call is on record?
The growth inhibition call was “inactive”.

How did the growth inhibition call turn out when `O=C(NO)c1ccncc1` was run?
Its growth inhibition call is “inactive”.

For `C=CCSc1n[nH]c2nc(=O)cc(N)n12`, which growth inhibition call is on record?
The growth inhibition call was “inactive”.

`C[C@@H]1CCCCO[C@H](CN(C)C(=O)Nc2cccc3ccccc23)[C@H](C)CN([C@H](C)CO)C(=O)c2cc(NC(=O)C3CCCCC3)ccc2O1` was tested. Which growth inhibition call did it give?
Its growth inhibition call is “inactive”.

How did the growth inhibition call turn out when `CNC(=O)C[C@H]1CC[C@H]2[C@@H](COC[C@@H](O)CN2C(=O)Nc2cccc(OC)c2)O1` was run?
Its growth inhibition call is “inactive”.

`CC(C)NC(=O)N(C)C[C@H]1Oc2cc(C#Cc3ccccn3)ccc2S(=O)(=O)N([C@H](C)CO)C[C@H]1C` was tested. Which growth inhibition call did it give?
Its growth inhibition call is “inactive”.

How did the growth inhibition call turn out when `NCC[C@@H]1CC[C@@H](NC(=O)NC2CCCCC2)[C@@H](CO)O1` was run?
The growth inhibition call was “inactive”.

For `C[C@H](CO)N1C[C@H](C)[C@H](CN(C)C(=O)Nc2ccc(C(F)(F)F)cc2)OCCCC[C@H](C)Oc2ccc(NC(=O)NC3CCCCC3)cc2C1=O`, which growth inhibition call is on record?
The growth inhibition call was “inactive”.

For `C[C@@H](O)C#Cc1ccc2c(c1)O[C@@H](CN(C)C(=O)CN(C)C)[C@@H](C)CN([C@@H](C)CO)S2(=O)=O`, which growth inhibition call is on record?
Its growth inhibition call is “inactive”.

With `Cc1cc(=O)n2ncnc2[nH]1` as the compound, how does the growth inhibition call read?
The growth inhibition call was “inactive”.

How did the growth inhibition call turn out when `O=c1c(O)c(-c2ccc(O)c(O)c2)oc2cc(O)ccc12` was run?
Its growth inhibition call is “inactive”.

`C[C@H]1CN([C@@H](C)CO)C(=O)Cc2cc(NS(=O)(=O)c3ccc(F)cc3)ccc2O[C@@H]1CN(C)Cc1ccncc1` was tested. Which growth inhibition call did it give?
Its growth inhibition call is “inactive”.

With `C[C@@H]1CCCCO[C@@H](CN(C)S(=O)(=O)c2ccc(Cl)cc2)[C@@H](C)CN([C@H](C)CO)C(=O)c2cc(NC(=O)c3ccccc3)ccc2O1` as the compound, how does the growth inhibition call read?
The growth inhibition call was “inactive”.

Which growth inhibition call does the source give for `O=C(C[C@H]1CC[C@@H](NS(=O)(=O)c2ccc(F)cc2)[C@H](CO)O1)N1CCC(Cc2ccccc2)CC1` here?
Its growth inhibition call is “inactive”.

`c1cnc2c(c1)OCCN2` was tested. Which growth inhibition call did it give?
Its growth inhibition call is “inactive”.

Which growth inhibition call does the source give for `C[C@H]1CN([C@@H](C)CO)C(=O)c2c(c3ccccc3n2C)-c2ccccc2CO[C@@H]1CN(C)Cc1ccc(-c2ccccc2)cc1` here?
Its growth inhibition call is “inactive”.
